This is an account of results in US20060062780A1.

The assay has as its target MOG-reactive B-cell receptor on B cells of anti-MOG transgenic mice. The experiment in a line: cell-based or functional assay.

B1: eMOG-Fc fusion protein (de-immunized MOG-Fc) (Fc fusion)
chain: GQFRVIGPRHPIRALVGDEVELPCRISPGKNATGMEVGWYRPPFSRVVHLYRNGKDQDGDQAPEYRGRTELLKDAIGEGKVTLRIRNVRFSDEGGFTCFFRDHAYQEEAAMELKVEDPFYWVSPGSG[human IgG1 Fc not shown]
In turn, B1 registered a B-cell numbers (CD19) in control cultures, ex vivo, splenocytes of TH mice (% of total live lymphocytes) of 12 and a B-cell numbers (CD19) in cultures treated with 10 µg/ml eMOG-Fc for 16 h, ex vivo, splenocytes of TH mice (% of total live lymphocytes) of 8.
